The target in assay [1] is T1, Shc SH2 domain (380 – 473) (UniProt P29353).
T1 sequence: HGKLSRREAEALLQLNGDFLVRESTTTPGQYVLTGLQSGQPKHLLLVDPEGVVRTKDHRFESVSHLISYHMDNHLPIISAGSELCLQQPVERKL
In words: SEC; Superdex-75; 50 mM Tris, pH 7.5, 100 mM NaCl, 5 mM β-mercaptoethanol; both purified. Background: In gel filtration, larger molecules generally elute earlier.

For assay [2], the target named is full length Shc (1 – 473) (UniProt P29353). The assay is described as above.
Assay [3] deals with T2, Shc PTB domain (17 – 207) (UniProt P29353).
T2 sequence: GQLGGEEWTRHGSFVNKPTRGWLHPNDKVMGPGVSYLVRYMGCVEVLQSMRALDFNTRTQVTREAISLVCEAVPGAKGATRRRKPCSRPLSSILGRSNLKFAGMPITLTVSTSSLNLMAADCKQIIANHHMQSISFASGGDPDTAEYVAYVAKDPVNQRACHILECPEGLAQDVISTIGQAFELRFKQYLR
Described as above.

For assay [4], the target named is T1, Shc SH2 domain (380 – 473). In words: ITC; SH2 domain with β3 phosphopeptides; 'in all the experiments performed'; 12°C or 25°C; 50 mM Tris, pH 7.5, 100 mM NaCl, 5 mM β-mercaptoethanol; both purified. On the technique in general: Isothermal titration calorimetry measures the heat released or taken up as one component is titrated into another.
Assay [5] has as its target T2, Shc PTB domain (17 – 207). In words: NMR titration; 15N-HSQC of 15N-labelled PTB domain (100-200 μM) with bi-β3 or c-β3 added at 1:2 protein-to-peptide ratio, without and with PtdIns (1:0 to 1:15); 35°C; 50 mM Tris, pH 7.5, 100 mM NaCl, 5 mM β-mercaptoethanol, 7% D2O; both purified.

Results are given in words; binding and its absence hold for the method and conditions named. Some entries that bind do so weakly or less than the wild type.

B1: Shc SH2 domain (380 – 473) (domain or fragment, UniProt P29353-2 380-473)
chain: HGKLSRREAEALLQLNGDFLVRESTTTPGQYVLTGLQSGQPKHLLLVDPEGVVRTKDHRFESVSHLISYHMDNHLPIISAGSELCLQQPVERKL
With B1, the binding result in assay [1] is recorded as “no binding”.

B2: full length Shc (1 – 473) (protein, UniProt P29353-2 1-473)
chain: MNKLSGGGGRRTRVEGGQLGGEEWTRHGSFVNKPTRGWLHPNDKVMGPGVSYLVRYMGCVEVLQSMRALDFNTRTQVTREAISLVCEAVPGAKGATRRRKPCSRPLSSILGRSNLKFAGMPITLTVSTSSLNLMAADCKQIIANHHMQSISFASGGDPDTAEYVAYVAKDPVNQRACHILECPEGLAQDVISTIGQAFELRFKQYLRNPPKLVTPHDRMAGFDGSAWDEEEEEPPDHQYYNDFPGKEPPLGGVVDMRLREGAAPGAARPTAPNAQTPSHLGATLPVGQPVGGDPEVRKQMPPPPPCPGRELFDDPSYVNVQNLDKARQAVGGAGPPNPAINGSAPRDLFDMKPFEDALRVPPPPQSVSMAEQLRGEPWFHGKLSRREAEALLQLNGDFLVRESTTTPGQYVLTGLQSGQPKHLLLVDPEGVVRTKDHRFESVSHLISYHMDNHLPIISAGSELCLQQPVERKL
Take B2: the binding result in assay [2] is listed as “no binding”.

B3: Shc PTB domain (17 – 207) (domain or fragment, UniProt P29353-2 17-207)
chain: GQLGGEEWTRHGSFVNKPTRGWLHPNDKVMGPGVSYLVRYMGCVEVLQSMRALDFNTRTQVTREAISLVCEAVPGAKGATRRRKPCSRPLSSILGRSNLKFAGMPITLTVSTSSLNLMAADCKQIIANHHMQSISFASGGDPDTAEYVAYVAKDPVNQRACHILECPEGLAQDVISTIGQAFELRFKQYLR
Take B3: the binding entry in assay [3] is “no binding”.

B4: c-β3: β3 integrin derived peptide phosphorylated at C-terminal tyrosine (Y759) (peptide)
peptide: ATSTFTNITYRGT
modifications: phosphotyrosine at 759 (pY)
Take B4: the binding entry is reported as “no binding” in assay [4] and “binds” in assay [5].

B5: bi-β3: β3 integrin derived bi-phosphorylated (Y747 and Y759) peptide (peptide)
peptide: RAKWDTANNPLYKEATSTFTNITYRGT
modifications: phosphotyrosine at 747 and 759 (pY)
For B5, in assay [4], the binding result is “no binding”.

The values above are taken from article PMC4397963, “Phospho-Tyrosine(s) vs. Phosphatidylinositol Binding in Shc Mediated Integrin Signaling” (American journal of molecular biology, 2015).
